The values below come from PubChem BioAssay (NCI).

The structures appear in SMILES notation. Several values for one entry are separate records, joined by “and”; a condition that tells them apart may be missing. Equal entries are not always repeated.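 In this assay, cells in 96-well plates receive the compound at five concentrations for 48 hours. Endpoints are linearly interpolated between the surrounding concentrations. GI50 = concentration required for 50% inhibition of growth. At the TGI there is no net growth.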

The experiment has as its system NCI-H322M lung. Nature of the experiment: growth of human tumour cells (NCI), 48 h.
As for `COC1=CC(c2ccc[nH]2)=N/C1=C\c1[nH]c(C)c(C(=O)CCCCCCCCC(=O)O[C@H]2CC[C@H]3C4CCc5cc(O)ccc5C4CC[C@]23C)c1C` (stereo partly specified), the GI50 was 2.52 µM and the TGI is over 50 µM.

`CCOc1c(Br)cc(Br)cc1C=C(C#N)C#N`: the TGI is over 10 µM.

Consider `O=C(Nc1ccccc1)N1CCN(C(=O)Nc2ccccc2)C1=S`, for which the TGI was over 100 µM.

Take `Cc1cccc(C2NC(=O)c3ccccc3N2)c1` (stereo unspecified): the TGI was over 100 µM.

The compound `CC(=O)Nc1ccc(C2CC(c3ccc([N+](=O)[O-])cc3)=Nc3ccccc3S2)cc1` (stereo unspecified) yielded a TGI of over 100 µM.

As for `[N-]=[N+]=CC(=O)CCC(N)C(=O)O` (stereo unspecified), the GI50 was 0.944 µM and the TGI was over 209 µM.

Consider `C=C1CCC[C@@H](C)C(O)[C@@H]2OC(=O)C(=C)[C@@H]2C[C@@H](OC(C)=O)[C@@]2(C)CC[C@@H]1O2` (stereo partly specified), for which the TGI was 15.3 µM.

In turn, `Cn1/c(=N\N=C2\C=C3CCCCC3(C)CC2)sc2ccccc21` (stereo unspecified) had a TGI of over 100 µM.

Compound `COc1cc2c(/C=C3/C(=O)Nc4ccccc43)c(Cl)n(Cc3ccc(Cl)cc3)c2cc1C` showed a TGI of 13.7 µM.

`O=C1NC(O)c2cc3ccccc3cc2O1` (stereo unspecified) came in with a TGI of over 100 µM.

In turn, `COc1cc(O)ccc1C(=S)SC` came in with a TGI of over 100 µM.

Compound `O=C(O)c1c(CC(Cc2ccc3c(c2)CCC3)C(=O)O)ccc2c1CCC2` (stereo unspecified) gave a TGI of over 100 µM.

For the compound `COc1ccc(-c2ccc(CC(=O)O)cc2)cc1OC`, the TGI was over 100 µM.

Compound `CCOC(=O)c1c(-c2ccc(OC)cc2)ccn1C` registered a TGI of over 10 µM.

`COc1ccc(CCNC(=O)Cc2ccccc2CO)cc1OC` came in with a TGI of over 100 µM.

`Cc1cccc(C)c1NC(=O)C(=O)Cc1nc2ccccc2s1` displayed a TGI of over 100 µM.

`N#Cc1ccccc1NC(=O)C(=O)C(C(=O)c1ccccc1F)C1OC(=O)c2ccccc21` (stereo unspecified) had a TGI of over 100 µM.

Turning to `COc1c2ccoc2nc2c(OC)c(OCC(O)C(C)(C)O)ccc12` (stereo unspecified), the TGI is over 100 µM.

In the case of `Cn1c(I)c(C#C[Si](C)(C)C)c(=O)n(C(=O)c2ccccc2)c1=O`, the GI50 is 25.1 µM and the TGI is 57.1 µM.

As for `N#C/C(=C\c1ccc2[nH]ccc2c1)C(=O)NCCCCNC(=O)/C(C#N)=C/c1ccc2[nH]ccc2c1`, the TGI is over 31.6 µM.

For `N[C@@H](CCC(=O)NC(Cc1ccccc1)C(=O)NCP(=O)(O)O)C(=O)O` (stereo partly specified), the TGI is over 100 µM.

`Cn1c(=O)c2c(nc3[nH]c(=O)c(Br)cn32)n(C)c1=O`: the TGI is over 100 µM.

`CCC1(O)CC(CCN(Cc2ccccc2)C(=O)OCc2ccccc2)C(OCc2ccccc2)C1O` (stereo unspecified): the TGI turned out to be 36.7 µM.

`CSC(SC)=C(C(=O)c1ccc(Cl)cc1)n1c(=O)sc2cc(Br)ccc21` came in with a TGI of over 100 µM.

As to `O=S(=O)(NC1=NCCN1C(=S)SN1CCn2c1nsc2=S)c1ccc(Cl)cc1`, the GI50 is 28.7 µM and the TGI is 51.1 µM.

As to `CC(=O)N1[C@H](C(=O)O)CS[C@H]1c1ccc(F)cc1`, the TGI is over 100 µM.

`CN1CCCC2[C@@H]3CCC4c5nonc5CC[C@]4(C)C3CC[C@@]21C` (stereo partly specified) returned a TGI of over 100 µM.

Compound `CC1OC(OC2C(O[C@H]3CC[C@@]4(C)C(=CC[C@H]5[C@@H]6C[C@@H]7O[C@]8(CC[C@@H](C)CO8)[C@@H](C)[C@@H]7[C@@]6(C)CC[C@@H]54)C3)OC(CO)C(O)C2OC2OC(CO)C(O)C(O)C2O)C(O)C(O)C1O` (stereo partly specified) had a TGI of 3.3 µM.

Consider `O=c1c2cc(Br)cc(Br)c2[nH]c(=S)n1-c1ccc(N=Nc2ccc(O)c3cccnc23)cc1`, for which the TGI was over 100 µM.

`CC(C)(C)C#COC(=O)c1ccccc1` returned a TGI of over 100 µM.

The compound `CN(C)C(=S)/N=c1\ss/c(=N\C(=S)N(C)C)n1-c1cccc(Cl)c1` yielded a TGI of over 100 µM.

Take `COc1ccc(-c2ccc(C3CC(c4ccccc4)=NN3)o2)c([N+](=O)[O-])c1` (stereo unspecified): the GI50 was 43 µM and the TGI is over 100 µM.

Turning to `CC(C)(C)C(=O)Nc1c(C=O)ccc2[nH]cnc12`, the TGI was over 100 µM.

Regarding `COc1cc(/C=N/NC(=O)c2cnn3c2NC(c2ccccc2)C3)ccc1OC1CCCC1` (stereo unspecified), the GI50 was 0.821 µM and the TGI turned out to be 10.4 µM.

`CC1=NN(c2cccc(Cl)c2)C(=O)/C1=C\c1cn(CC(O)CN2CCCCC2)c2ccccc12` (stereo unspecified): the GI50 was 14.9 µM and the TGI was found to be 31.8 µM.

`O=C(Nc1ccc(Cl)cc1C(F)(F)F)C(=O)Nn1c(=S)[nH]c2ccccc2c1=O` showed a TGI of over 100 µM.

Turning to `O=C(O)CSC(CC(=O)c1ccc(Cl)cc1)c1ccc(Cl)cc1` (stereo unspecified), the TGI was over 100 µM.

Compound `CC(=O)CC1(CBr)Nc2ccc([N+](=O)[O-])cc2NC1=O` (stereo unspecified) displayed a TGI of over 100 µM.

Regarding `COc1cccc(-c2cc(C(=O)Nc3ccc(/C=C/c4ccc(OC5CCN(C)CC5)cc4)cc3)ccc2OC)c1`, the GI50 was 1.67 µM and the TGI amounted to 3.24 µM.

Take `COC(=O)C1=C(CCCCO[Si](C)(C)C(C)(C)C)NC(=O)N2[C@H](CCOCc3ccccc3)CC[C@@H]12`: the TGI is over 100 µM.

Regarding `CC(C)Cc1cnc(CC(C)C)c(=O)[nH]1`, the TGI was over 100 µM.

Turning to `CC1(C)CC(C)(C)c2cc(NC(=S)Nc3ccc([N+](=O)[O-])cc3)ccc2S1`, the GI50 was 9.73 µM and the TGI was found to be 24.9 µM.

Turning to `CCc1nc(N)c2nc(-c3cccs3)oc2n1`, the TGI is over 100 µM.

As to `CC(C)(C)C1CCC2c3c([nH]c4ccccc34)C3C(=O)N(c4ccc([N+](=O)[O-])cc4)C(=O)C3C2C1` (stereo unspecified), the TGI was over 100 µM.

`O=[N+]([O-])c1ccc(-n2nc3ccc4nonc4c3n2)cc1`: the TGI is over 100 µM.

`COc1ccc(-c2ccc(C(=O)C=P(c3ccccc3)(c3ccccc3)c3ccccc3)cc2)cc1` registered a TGI of 44.9 µM.

As to `COC1CC(C)(NC(=O)C(F)(F)F)C2OC(c3ccccc3)OCC2O1` (stereo unspecified), the TGI is over 100 µM.

Regarding `CC(C)CCCC(C)[C@H]1CCC(C2C[C@@H](O)[C@@H]3CC(O)[C@@H](O)C[C@]3(CO)C2=O)[C@]1(C)CCO` (stereo partly specified), the TGI was determined as 72.6 µM.

In turn, `COC(=O)C1C=CCC2CCCCC21N1CCCC1` (stereo unspecified) showed a TGI of over 100 µM.

`CC1=C(C)C(=O)C(C2=CC(=O)c3ccccc3C2=O)=C(C2=CC(=O)c3ccccc3C2=O)C1=O`: the TGI amounted to 46.2 µM.

Turning to `COc1ccc(-n2cc(-c3ccc(OC)c(OC)c3)[nH]c2=O)cc1`, the GI50 was over 100 µM and the TGI was over 100 µM.

The compound `C=C(NC(=O)C(=C)NC(=O)c1ccc2c(n1)-c1coc(n1)C(=C)NC(=O)C(=C)NC(=O)c1nc(oc1C)C(=C)NC(=O)C(C(C)(C)O)NC(=O)C(=C)NC(=O)c1coc(n1)/C(=C/C)NC(=O)[C@H]([C@@H](C)O)NC(=O)c1csc-2n1)C(N)=O` (stereo partly specified) came in with a TGI of over 87.5 µM.

Take `COc1ccc(-c2ccc(OC)c(OC)c2OC)cc1`: the GI50 was 6.65 µM and the TGI is over 100 µM.

Regarding `CCN(CC)C(=S)SC(C(=O)Nc1nnc(-c2ccc(Cl)cc2)o1)c1ccccc1` (stereo unspecified), the TGI worked out at 94.2 µM.

In the case of `O=C(CNc1ccccc1C(=O)O)Nn1cnc2ccc(S(=O)(=O)Nc3ccccc3C(=O)O)cc2c1=O`, the TGI is over 100 µM.

Consider `Nc1c(C(=O)c2ccc(Cl)c(Cl)c2)[nH]c(NCc2ccccc2)c1C(=S)Nc1ccccc1`, for which the TGI is 18.1 µM.

Regarding `CC(=O)[CH-]C(C)=O.CC(=O)[CH-]C(C)=O.[O-]c1ccccc1.[O-]c1ccccc1.[Ti+4]`, the GI50 was over 100 µM and the TGI is over 100 µM.

Take `O=C1C(=O)c2c(nc3ccc(C(F)(F)F)cn23)-c2ccccc21`: the GI50 is 0.552 µM and the TGI was 1.15 µM.

Consider `Cc1ccc(C2=CC(=O)c3ccccc3C2=O)n1-c1ccccc1`, for which the TGI is over 100 µM.

The compound `COc1cccc2c1C(=O)c1c(O)c3c(c(O)c1C2=O)C[C@@](O)(C(C)=O)CC3OC1CC(OC2CC(N)C(O)C(C)O2)C(O)C(C)O1` (stereo partly specified) came in with a TGI of over 100 µM.

On to `O=C1NC(=NCCc2ccc(Cl)cc2)S/C1=C\c1ccc2ncccc2c1`, for which the GI50 was over 25 µM and the TGI is over 25 µM.

`COc1cc2c(cc1O)C1Cc3ccc(OC)c(O)c3C[N+]1(C)CC2` (stereo unspecified) had a TGI of over 100 µM.

The compound `c1cnc2c(c1)-n1cccc1C1(CCCCC1)NN2` yielded a TGI of over 100 µM.

`CCOC(=O)c1cc(-c2ccc(OC)cc2)c([N+](=O)[O-])[nH]1` displayed a TGI of over 10 µM.

For the compound `CCN(CC)C(=S)SSC(C)C`, the GI50 was 34.9 µM and the TGI is over 100 µM.

`O=C1Nc2ccccc2/C1=C\c1c(Cl)n(-c2ccccc2)c2ccccc12` gave a TGI of 13.2 µM.

For `O=C(O)C(Cc1ccccc1)NCc1c(O)ccc2c(-c3ccccc3)cc(=O)oc12` (stereo unspecified), the TGI was over 100 µM.

As for `COC(=O)C1OC(O[C@H]2CC[C@]3(C)[C@H]4CC=C5[C@@H]6CC(C)(C)CC[C@]6(C(=O)OC6OCC(O)C(O)C6OC6OC(C)C(OC7OCC(O)C(O)C7O)C(O)C6O)[C@H](O)C[C@@]5(C)[C@]4(C)CC[C@H]3C2(C)C)C(O)C(O)C1O` (stereo partly specified), the TGI was 6.8 µM and 8.09 µM.

Take `CCC[CH2][Sn-]([CH2]CCC)([CH2]CCC)[O]C(=O)C(C)C`: the GI50 is 0.133 µM and the TGI was found to be 0.264 µM.

For `O=C(c1ccccc1)C1N=NN(Cc2ccccc2[N+](=O)[O-])C1C(=O)c1ccccc1` (stereo unspecified), the TGI is over 100 µM.

For the compound `CCN1CC2(C)CCC(OC)C34C5CC6CCC(O)(C5C(=O)O6)C(C(O)C23)C14` (stereo unspecified), the TGI was over 100 µM.

Compound `COC(=O)[C@]1(c2cc3ccccc3n2S(=O)(=O)c2ccccc2)CC2CN(C(=O)OCc3ccccc3)C1C1OC(C)(C)OC21` (stereo partly specified) registered a TGI of over 100 µM.

On to `N/N=C(/Cc1ccccc1)NNO`, for which the TGI is over 100 µM.

As to `CC(C)(CO[C@H]1C[C@H]2CC[C@@]1(C)C2(C)C)[N+](=O)[O-]`, the TGI is 29.6 µM.

Compound `C[s+]1c2ccccc2c2ccccc21` registered a TGI of over 100 µM.

`COC1=CC(=O)O/C1=C(\OC)C1OC1c1ccccc1` (stereo unspecified) had a TGI of over 100 µM.

With `CN(CCCCCl)P(=O)(OCc1ccc([N+](=O)[O-])o1)OCC1OC(n2ccc(N)nc2=O)C(O)C1O` (stereo unspecified), the TGI turned out to be 74.7 µM.

With `O=C(Nc1n[nH]c2cc(-c3cc(F)ccc3F)ccc12)C1CC1`, the GI50 is over 25 µM and the TGI is over 25 µM.

Regarding `CC(C)C[C@@H](N)[C@@H](O)C(=O)N[C@H](C(=O)N[C@H](C(=O)N[C@@H](CC(=O)O)C(=O)O)C(C)C)C(C)C`, the GI50 was over 20 µM and the TGI was over 20 µM.

In turn, `Cc1cn(CCCCCCOC(=O)NC(CCCNC(N)=O)C(=O)O)c(=O)[nH]c1=O` (stereo unspecified) registered a TGI of over 100 µM.

`ClC1=NN=C(c2c[nH]c3ccccc23)CC1NCc1ccccc1` (stereo unspecified): the TGI was over 100 µM.

On to `Cn1c(COC(=O)NCCc2ccccn2)nc2c(N3CCOCC3)nc(Cl)nc21`, for which the GI50 is 10.5 µM and the TGI was 22.4 µM.
